Measurements from a collection of fitness landscapes (doi:10.1016/j.celrep.2020.107928).
In all, about 81,000 sequences were measured (“one-hybrid fitness for binding parS DNA”: median about -0.17, highest 2% from about 0.51 on). The list shows a part of the results.

B1: Caulobacter ParB omega fusion; a variant is named by its letters at X, in order, B8GW30 (parent)
chain: MESVVVGEPGMSEGRRGLGRGLSALLGEVDAAPAQAPGEQLGGSREAPIEILQRNPDQPRRTFREEDLEDLSNSIREKGVLQPILVRPSPDTAGEYQIVAGERAWRAAQRAGLKTVPIMVRELDDLAVLEIGIIENVQRADLNVLEEALSYKVLMEKFERTQENIAQTIGKSXSHVANXMRLLXLPDEVQSYLVSGELTAXHARAIAAAADPVALAKQIIEGGLSVRETEALARKAPNLSAGKSKGGRPPRVKDTDTQALESDLSSVLGLDVSIDHRGSTGTLTITYATLEQLDDLCNRLTRGI

Variants of: B1
Experiment: one-hybrid fitness for binding parS DNA (scaled: cognate 1, non-cognate 0); higher = stronger binding
Details: with parS DNA site
In short: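 Caulobacter ParB libraries with four specificity codons randomised were screened by bacterial one-hybrid selection in the E. coli USO strain, using a HIS3 reporter whose site lies 19 bp from the promoter. Selection ran for 48 hours at 37°C on M9 lacking histidine, with 0.1 mM IPTG and 5 mM 3-AT. Plasmids were Illumina-sequenced before and after selection, three replicate libraries were pooled, and variants with under 10 reads were dropped. Fitness is the log change in each variant's read ratio to wild type, rescaled against the cognate and non-cognate sites.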

one-hybrid fitness for binding parS DNA, 0.889:
RQNT

one-hybrid fitness for binding parS DNA, 0.319:
KLYP

one-hybrid fitness for binding parS DNA, 0.612:
RALA

one-hybrid fitness for binding parS DNA, 0.723:
RNHT

one-hybrid fitness for binding parS DNA, 0.448:
RAGN

one-hybrid fitness for binding parS DNA, ≤ 0.2:
STES
QRAE
ASPP
MTRS
AEWS
LNNL
NDTF
YPTR
LDPG
DLSV
FRHR
KTYF
TSGM
DPRR
YKCC
LSTD
TEEN
GRQL
APAR
TMRR
NRHE
SPLS
PRVL
SIKG
DEFR
CGFC
PGPI
TGTQ
DQHR
PKYE
NGYR
WQQI
GPEI
PDVM
VTIY
NMNS
SPPR
CRRR
IDNE
QMLI
ALQG
NRKG
LGVS
MFSS
AKDT
VMPH
HLGH
FSTM
NLKN
ACYC
IQNT
QDPR
MDKS
VYAR
DPPR
GMGR
MSPI
YKAR
PLRL
FVYT
CACF
PKPE
QQNR
LQNS
LAST
WGTG
DGGN
IMTC
QVQV
TWLI
NPPC
EYPV
KWRR
PGKG
QPSQ
PTEP
PANG
ELSE
MLSI
DMLY
GFFG
THWI
HNVN
GTDL
ATAQ
ARQN
NWWC
VRPV
IGAS
IGRI
KMLR
IDIS
QYRE
MSQM
CLSW
VRRQ
DYFC
MKKR
LAGY
QCPW
CTCT
HNMA
QSEL
QALS
RVAR
LTHG
NGQV
ATRQ
ESTF
SETA
SYVC
AHKM
MECR
MTKH
LLLY
QHNC
ALMS
QWAY
TGFC
DILR
ASTD
ISEG
VHVC
VRKE
FVAS
DILS
AIQY
PPTV
VTTT
LHAG
YNNE
FTKK
QGDF
RQSL
KAAN
GGYG
TWNC
QLYE
WHGR
SRRL
PSRC
SSHP
SGAV
SSSG
QLEY
TLTS
FTNC
ERAG
FCGR
RIWI
PRLL
PFAT
WSEM
CYNT
WAPG
SRYK
SHHY
PGYW
FNLC
QDNN
DAPA
AVKG
QKSW
SHWT
QQRA
ELHS
TCQA
GSPN
CRFS
HRTN
MQRR
RHFH
KYKV
TTRK
QKAE
SSTW
ALVL
KLWM
RRAQ
IWKL
CMQC
LEFM
QSHL
KYRW
QRKA

one-hybrid fitness for binding parS DNA, 0.802:
RREA

one-hybrid fitness for binding parS DNA, 0.301:
RTNM

one-hybrid fitness for binding parS DNA, 0.699:
RRTG

one-hybrid fitness for binding parS DNA, 0.281:
RSRF

one-hybrid fitness for binding parS DNA, 0.241:
RQSW
